Some of the results follow. Sequences were assembled here from the parent chain. Inactive controls read about 0.05.
B1: TEV protease; numbered along this chain (parent)
chain: MGESLFKGPRDYNPISSSICHLTNESDGHTTSLYGIGFGPFIITNKHLFRRNNGTLVVQSLHGVFKVKDTTTLQQHLVDGRDMIIIRMPKDFPPFPQKLKFREPQREERICLVTTNFQTKSMSSMVSDTSCTFPSGDGIFWKHWIQTKDGQCGSPLVSTRDGFIVGIHSASNFTNTNNYFTSVPKNFMELLTNQEAQQWVSGWRLNADSVLWGGHKVFMVKPEEPFQPVKEATQL

Variants of: B1
Experiment: raw area under fraction-flipped curve 0-4 h after induction (AUC4h, not background-subtracted), DNA-recorder readout of cleavage of the substrate (dimensionless); higher = more cleavage of the substrate by the protease variant
Conditions: temperature: 34 °C; time window: 0-4 h after rhamnose induction
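Further: Bxb1 expression induced with 0.2% (w/v) L-rhamnose at OD600 near 0.5, cultures sampled hourly, flipped fraction per protease–substrate barcode pair counted by paired-end Illumina sequencing.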

Variant	area with substrate ENLYDQS	area with substrate ENLYHQS	area with substrate ENLYEQS	area with substrate ENLYMQS	area with substrate ENLYNQS	area with substrate ENLYPQS	area with substrate ENLYQQS	area with substrate ENLYRQS	area with substrate ENLYIQS	area with substrate ENLYKQS	area with substrate ENLYSQS	area with substrate ENLYVQS	area with substrate ENLYYQS	area with substrate ENLYGQS	area with substrate ENLYTQS	area with substrate ENLYWQS	area with substrate ENLYLQS
MGESLFKGPRDYNPISSSICHLTNESDGHTTSLYGIGFGPFIITNKHLFRRNNGTLVVQSLHGVFKVKDTTTLQQHLVDGRDMIIIRMPKDFPPFPQKLKFREPQREERICLVTTNFQTKSMSSMVSDTSCTFPSGDGIFWKHWIQTKDGQCRSPLVSTRDGFIVGIHSASNFTNTNNYFTSVPKNFMELLTNQEAQQWVSGWRLNADSVLWGGHKVFMVKPEEPFQPVKEATQL [G153R]	0.0415	0.058	–	–	–	–	–	–	–	–	–	–	–	–	–	–	–
MGESLFKGPRDYNPISSSICHLTNESDGHTTSLYGIGFGPFIITNKHLFRRNNGTLVVQSLHGVFKVKDTTTLQQHLVDGRDMIIIRMPKDFPPFPQKLKFREPQREERICLVTTNFQTKSMSSMVSSTSCTFPSGDGIFWKHWIQTKDGQCGSPLVSTRDGFIVGIHSASNFTNTNNYFTSVPKNFMELLTNQEAQQWVSGWRLNADSVLWGGHKVFMVKPEEPFQPVKEATQL [D128S]	0.0504	0.116	0.0574	0.102	0.093	0.105	0.0654	0.0716	–	–	–	–	–	–	–	–	–
MGESLFKGPRDYNPISSSICHLTNESDGHTTSLYGIGFGPFIITNKHLFRRNNGTLVVQSLHGVFKVKDTTTLQQHLVDGRDMIIIRMPKDFPPFPQKLKFREPQREERICLVTTNFQTKSMSSMVSDTSCTFPSGDGIFSKHWIQTKDGQCGSPLVSTRDGFIVGIHSASNFTNTNNYFTSVPKNFMELLTNQEAQQWVSGWRLNADSVLWGGHKVFMVKPEEPFQPVKEATQL [W141S]	0.0575	0.0614	0.058	0.0721	0.0509	0.056	–	0.0602	0.0583	0.0511	0.0566	0.0845	0.052	–	–	–	–
MGESLFKGPRDYNPISSSICHLTNESDGHTTSLYGIGFGPFIITNKHLFRRNNGTLVVQSLHGVFKVKDTTTLQQHLVDGRDMIIIRMPKDFPPFPQKLKFREPQREERICLVTTNFQTKSMSKMVSDTSCTFPSGDGIFWKHWIQTKDGQCGSPLVSTRDGFIVGIHSASNFTNTNNYFTSVPKNFMELLTNQEAQQWVSGWRLNADSVLWGGHKVFMVKPEEPFQPVKEATQL [S124K]	0.0624	0.0565	0.073	0.0981	0.0834	0.0707	0.0529	0.0602	–	0.0685	0.0725	0.135	–	0.0624	0.0726	0.0806	–
MGESLFKGPRDYNPISSSICHLTNESDGHTTSLYGIGFGPFIITNKHLFRRNNGTLVVQSLHGVFKVKDTTTLQQHLVDGRDMIIIRMPKDFPPFPQKLKFREPQREERICLVTTNFQTKSMSSMVSDTSCTFPSGDGIFWKHWIQTKDGQCGSPLVSTRDGFINGIHSASNFTNTNNYFTSVPKNFMELLTNQEAQQWVSGWRLNADSVLWGGHKVFMVKPEEPFQPVKEATQL [V165N]	0.0608	–	0.0477	–	–	–	–	0.0428	–	0.0642	0.051	–	–	0.0741	0.0626	–	–
MGESLFKGPRDYNPISSSICHLTNESDGHTTSLYGIGFGPFIITNKHLFRRNNGTLVVQSLHGVFKVKDTTTLQQHLVDGRDMIIIRMPKDFPPFPQKLKFREPQREERICLVTTNFQTKSMSSMVSDTSCDFPSGDGIFWKHWIQTKDGQCGSPLVSTRDGFIVGIHSASNFTNTNNYFTSVPKNFMELLTNQEAQQWVSGWRLNADSVLWGGHKVFMVKPEEPFQPVKEATQL [T132D]	0.054	0.0643	0.0526	0.0461	0.0543	0.0574	0.0525	0.046	0.0547	0.0522	0.0623	0.0572	0.0537	0.0535	–	0.0516	0.0558
MGESLFKGPRDYNPISSSICHLTNESDGHTTSLYGIGFGPFIITNKHLFRRNNGTLVVQSLHGVFKVKDTTTLQQHLVDGRDMIIIRMPKDFPPFPQKLKFREPQREERICLVTTNFQTKSMSSMVSDTSCTFPSGDGIFWKHWIQTKDGQCGSPLVSTRDGFFVGIHSASNFTNTNNYFTSVPKNFMELLTNQEAQQWVSGWRLNADSVLWGGHKVFMVKPEEPFQPVKEATQL [I164F]	0.045	–	–	0.0257	–	–	–	–	–	–	0.024	–	–	0.0468	–	–	–
MGESLFKGPRDYNPISSSICHLTNESDGHTTSLYGIGFGPFIITNKHLFRRNNGTLVVQSLHGVFKVKDTTTLQQHLVDGRDMIIIRMPKDFPPFPQKLKFREPQREERICLVTTNFQTKSMSSMVSDTSCTFPSGDGIFWKHWIQTKDGQRGSPLVSTRDGFIVGIHSASNFTNTNNYFTSVPKNFMELLTNQEAQQWVSGWRLNADSVLWGGHKVFMVKPEEPFQPVKEATQL [C152R]	0.0673	0.0582	0.0715	0.0642	0.0618	–	0.0596	0.0621	0.045	0.0442	0.0657	0.0666	–	0.0553	–	0.0577	0.0608
MGESLFKGPRDYNPISSSICHLTNESDGHTTSLYGIGFGPFIITNKHLFRRNNGTLVVQSLHGVFKVKDTTTLQQHLVDGRDMIIIRMPKDFPPFPQKLKFREPQREERICLVTTNFQTKSMSSMVSDTSCTFPSGDGIFWKHWIQTKDGQHGSPLVSTRDGFIVGIHSASNFTNTNNYFTSVPKNFMELLTNQEAQQWVSGWRLNADSVLWGGHKVFMVKPEEPFQPVKEATQL [C152H]	0.0705	0.0648	0.063	–	–	0.0674	–	–	–	0.0829	0.0568	–	–	–	–	–	–
MGESLFKGPRDYNPISSSICHLTNESDGHTTSLYGIGFGPFIITNKHLFRRNNGTLVVQSLHGVFKVKDTTTLQQHLVDGRDMIIIRMPKDFPPFPQKLKFREPQREERICLVTTNFQTKSMSSMVSDTSCTFPSGDGIFWYHWIQTKDGQCGSPLVSTRDGFIVGIHSASNFTNTNNYFTSVPKNFMELLTNQEAQQWVSGWRLNADSVLWGGHKVFMVKPEEPFQPVKEATQL [K142Y]	0.0635	0.0552	0.0709	0.0844	0.0647	0.084	–	0.061	0.0901	0.0499	–	–	0.0622	0.0602	–	–	–

From the supplement of paper PMC12217912
